# Measured values published in PubChem BioAssay AID686978 (National Center for Advancing Translational Sciences (NCATS), 2013).
# Where “and” joins values, the source holds several entries; their conditions need not be identical. Identical values can stand only once. The whole screen tested about 420,000 compounds, of which about 64,000 (15%) were called active. The inconclusive results got no clear call from the source; some entries with a clear call stand among them for comparison. The call rests on the fitted dose curve; in most records, active means well fitted inhibition curve with a large enough effect; inconclusive means small, poorly fitted or top-dose-only effect; inactive means flat fitted curve, though single readings scatter. Where the call is inconclusive, the potency comes from a doubtful curve fit.
# Assay: qHTS for Inhibitors of human tyrosyl-DNA phosphodiesterase 1 (TDP1): qHTS in cells in absence of CPT; further: nearly all actives have a fitted effect of over 55% in size
# Settings: DT40 Tdp1-/- hTDP1 cells, no CPT, ATP luminescence, 48 h; activity change, negative = growth inhibition: at 46.2 µM (top of the series) unless noted
# From the text: Human tyrosyl-DNA phosphodiesterase 1 (TDP1) is a novel repair gene, and we propose to use it as a new target for anticancer drug development. TDP1 is not an essential protein, but under treatment with topoisomerase I poison (camptothecin: CPT), TDP1 works as a critical factor for cell survival. To directly identify novel TDP1 inhibitors active in a cellular environment, we have knocked-out the Tdp1 gene in chicken DT40 cells (Tdp1-/-) and generated a complemented counterpart cells that contains a stable transfection of the human TDP1 gene (Tdp1-/-;hTDP1 cells). For the primary screen, Tdp1-/-;hTDP1 cells will be exposed to small molecules in the presence or absence of CPT, and their growth kinetics will be evaluated after 48 hours by measuring ATP activity. […] The hit compounds will then be evaluated in the presence or absence of CPT using Tdp1-/- cells. […] In tertiary assays, biochemical gel-based assays will be used to assess whether the hit compounds specifically target TDP1.
# To this end, we have screened this cell line against the MLSMR in two primary screens. In one screen we add CPT and in the other we screen in the absence of CPT; this AID represents the screen where CPT was absent.
# NIH Chemical Genomics Center [NCGC]
# NIH Molecular Libraries Probe Centers Network [MLPCN]
# Assay Submitter (PI): Yves Pommier, NCI
# DT40-hTDP1 cells without 20 nM Camptothecin (add 20 microL of DMSO in 1 L of cell culture medium) were dispensed at 400 cells/5microL/well in tissue culture treated 1536-well white wall/solid bottom assay plates (Greiner Bio-One North America, NC, U.S.A.) using a Multidrop Combi 8 channel dispenser (Thermo Fisher, Waltham, MA, USA). 23 nL compounds and controls were transferred using the pin tool (Kalypsys, San Diego, CA, USA) to the assay plates. The assay plates were then incubated at 37 masculineC for a minimum 48 hr. Three microL of Cell Titer Glo solution was added to the plates and incubated at RT in dark for 30 min. Luminescence was read using ViewLux (Perkin Elmer) with 1 sec exposure slow speed, high gain and 2x binning.
# On the % scale 0 is the no-effect control and ±100 the full control effect; potency means the concentration at half of the fitted maximal effect; tags describe the fitted curve by direction and shape.
SMILES,Potency,"activity change, negative = growth inhibition"
COc1ccc(/C=C2/CSC/C(=C/c3ccc(OC)c(OC)c3)C2=O)cc1OC,active: 2.91 µM,
CCOC(=O)[C@@H]1[C@H]2COc3ccccc3[C@@H]2N2C(=O)N(c3cccc(F)c3)C(=O)[C@]12C,inactive,
CC(OC(=O)Cc1n[nH]c(=O)c2ccccc12)C(=O)Nc1ccc(Cl)cn1 (stereo not given),,inconclusive: -30.7% [inhibitor]
CCOC(=O)c1sc2c(c1C)C(c1cccs1)C1=C(CCCC1=O)N2 (stereo not given),active: 16.4 µM,
CC1(C)CC(=O)C=C(c2cccc3c2sc2ccccc23)C1,"inconclusive: 11.6 µM [inhibitor, partial curve]",
COc1cccc(/C=N/N2CCN(C3c4ccccc4-c4ccccc43)CC2)c1O,active: 16.4 µM,
CC(C)(C)[C@H]1CCC(=O)N([C@H](CN=[N+]=[N-])Cc2ccccc2)CC1,active: 20 µM,
Cc1ccc2[nH]cc(C(=O)CN3CCOCC3)c2c1,"inconclusive: 29.1 µM [inhibitor, partial curve, poor fit]",
c1cc(-c2cc3cc4c(cc3cn2)OCO4)cs1,"inconclusive: 29.1 µM [inhibitor, single point]",
CN(CC1COc2ccccc2O1)C(=O)c1cccc(S(=O)(=O)N2CCCC2)c1 (stereo not given),"inconclusive: 0.731 µM [inhibitor, full curve, poor fit]",
COc1cccc(OCC(O)CNC(=O)c2oc3c(C)c(C)ccc3c2C)c1 (stereo not given),"inconclusive: 16.4 µM [inhibitor, single point]",
CC1(OC(=O)C2CCCC2)C(=O)C=C2C=C(c3ccsc3)N(Cc3ccc4c(c3)OCO4)C=C2C1=O (stereo not given),"inconclusive: 20.6 µM [inhibitor, single point]",
COC(=O)CC1C(=O)NCCN1C(=O)c1oc2c(C)c(C)ccc2c1C (stereo not given),"inconclusive: 29.1 µM [inhibitor, single point]",
COC(=O)c1ccc([C@H]2Nc3ccc(S(=O)(=O)Nc4cccc(C)c4)cc3[C@H]3C=CC[C@H]32)cc1,active: 1.16 µM,
CCCCOc1ccc(C(=O)N(Cc2ccco2)Cc2ccco2)cc1,active: 20.6 µM,
COc1ccccc1C1CC(=O)N(c2cccc(C(F)(F)F)c2)C2=C1C(=O)OC2 (stereo not given),"inconclusive: 23.1 µM [inhibitor, single point]",
CCCOc1ccc(C(=O)CCC(=O)NNC(=O)c2ccncc2)cc1,inactive,
Cc1ccc(NC(=O)CNc2cccc(S(=O)(=O)N3CCCCC3)c2)cc1F,"inconclusive: 23.1 µM [inhibitor, single point]",
CC(C)NC(=O)c1ccc(N(Cc2ccccc2)S(C)(=O)=O)cc1,inactive,
COC(=O)c1c(-c2ccccc2)c(-c2ccccc2)nn(C)c1=O,"inconclusive: 20.6 µM [inhibitor, single point] and inconclusive: 29.1 µM [inhibitor, single point]",
Cc1ccc(S(=O)(=O)N2C(c3ccc(Cl)c(Cl)c3)CC=C(C(=O)O)C2c2cccc(Cl)c2)cc1 (stereo not given),"inconclusive: 16.4 µM [inhibitor, single point]",
COc1ccc(-n2c(=O)c3c(c4cc(OC)ccc4n3C)n(CCC(C)C)c2=O)cc1,inactive,
C=CCn1c(SCC(=O)c2c(N)n(C)c(=O)n(C)c2=O)nc2sc(C)c(C)c2c1=O,"inconclusive: 16.4 µM [inhibitor, partial curve]",
CC1CCN2c3cc(Cl)ccc3CC3(C(=O)OC(C)(C)OC3=O)C2C1 (stereo not given),inactive,

SMILES,Potency,"activity change, negative = growth inhibition"
COCc1cc(Sc2ccc(Cl)cc2Cl)nc(-c2ccccc2)n1,"inconclusive: 29.1 µM [inhibitor, single point]",
Cc1cccc(NC(=O)C2=C(O)c3ccccc3N(C)S2(=O)=O)c1,active: 14.6 µM,
CCC1CCCCN1CCCNC(=O)Cn1cnc2sc(C)c(S(=O)(=O)N3CC(C)CC(C)C3)c2c1=O (stereo not given),"inconclusive: 18.4 µM [inhibitor, single point]",
O=C(Nc1ccc(F)cc1)C(NC1CCCCC1)c1ccccc1 (stereo not given),"inconclusive: 23.1 µM [inhibitor, single point]",
CCC(C)(C)NC(=O)C(c1ccccn1)N(C(=O)c1csnn1)C1CCCCC1 (stereo not given),"inconclusive: 0.731 µM [inhibitor, full curve, poor fit]",
CN1CCC(=NNc2ncnc3sc4c(c23)CCCC4)CC1,active: 20.6 µM,
CC(C)CN(C[C@@H](O)[C@H](Cc1ccccc1)NC(=O)O[C@@H]1CCOC1)S(=O)(=O)c1ccc(N)cc1,"inconclusive: 16.8 µM [inhibitor, single point]",
CCN1CCSc2ccc(C(=O)NCc3ccccc3Br)cc21,"inconclusive: 29.1 µM [inhibitor, single point]",
CCOC(=O)Cc1c(C)nc2c(-c3cccc(Br)c3)c[nH]n2c1=O,active: 4.11 µM,
CCOCCCNC(=O)CSc1nc2nc(C)c(Cc3ccccc3)c(C)n2n1,inactive,
Cc1cc(CN2CCN(c3ccc(F)cc3)CC2)cs1,"inconclusive: 9.2 µM [inhibitor, partial curve]",
CCOC(=O)C1CCCN(Cc2ccc(OCc3ccccc3)cc2)C1 (stereo not given),"inconclusive: 25.9 µM [inhibitor, single point]",
COc1ccccc1N1CCN(C(=O)c2cnc(N3CCOCC3)c3ccccc23)CC1,active: 16.4 µM,
Cc1cccc(CSCc2ccc(C(=O)NC(C)C)o2)c1,"inconclusive: 29.1 µM [inhibitor, single point]",
COc1ccccc1N(CC(=O)N/N=C/c1ccc(C(=O)O)cc1)S(=O)(=O)c1ccc(C)cc1,inactive,
O=C(NNC(=O)c1cc(Br)c(Br)s1)c1csc(N2CCOCC2)n1,inactive,
CCOC(=O)C1=C(N)N(c2ccc(C)cc2)C2=C(C(=O)CCC2)C1c1cccs1 (stereo not given),"inconclusive: 16.4 µM [inhibitor, single point]",
CN(C)c1ccc(/C=N/N2C(=S)SC(C)(C)C2N(O)C(=O)Nc2ccc([N+](=O)[O-])cc2)cc1 (stereo not given),"inconclusive: 29.1 µM [inhibitor, single point]",
CCCCNC(=O)C1(C)CCN1C(=O)c1cc(-c2ccccc2)cs1 (stereo not given),"inconclusive: 29.1 µM [inhibitor, single point]",
O=C(Nc1ccc(OCC(=O)N2CCOCC2)cc1)c1cccc(Cl)c1,inactive,
COc1ccc(-c2cc(CNc3nc(NCc4ccccc4OC)nc4ccsc34)on2)cc1,active: 25.9 µM,
CCC(Oc1ccccc1)C(=O)Nc1cc(C)on1 (stereo not given),inactive,
O=C(CN(Cc1ccccc1)C(=O)CCC(=O)Nc1ccccn1)NCCc1ccccc1,"inconclusive: 13 µM [inhibitor, partial curve, poor fit]",
Cc1cccc(OCC(=O)Nc2cccc(C(=O)Nc3ccccc3C(=O)O)c2)c1,"inconclusive: 29.1 µM [inhibitor, single point]",

SMILES,Potency,"activity change, negative = growth inhibition"
CC(=O)c1c(C)nc(-c2cccc([N+](=O)[O-])c2)n1O,"inconclusive: 23.1 µM [inhibitor, single point]",
COc1cccc(C2C(C(=O)c3cccs3)=C(O)C(=O)N2c2cc(C)on2)c1 (stereo not given),inactive,
O=C(CCn1cnc2ncccc2c1=O)N1CCN(c2cccc(Cl)c2)CC1,"inconclusive: 23.1 µM [inhibitor, partial curve, poor fit]",
COc1ccccc1N(CC(=O)NCc1ccc(F)cc1)C(=O)CCC(=O)Nc1ccccn1,"inconclusive: 23.1 µM [inhibitor, single point]",
Nc1nccc(/C=C/c2c(F)cccc2Cl)n1,inactive,
CCCCN(CCCC)C(=O)CSc1nnc2n(C)c(=O)c3c4c(sc3n12)CCCC4,active: 23.1 µM,
O=c1c(-c2ccccc2)c(O)c2cccc3c2n1CCC3,inactive,
COc1ccc(C(=O)C2CCCN(C(=O)c3cc(C(C)C)no3)C2)cc1F (stereo not given),"inconclusive: 23.1 µM [inhibitor, single point]",
O=C(OCCCN1CCOCC1)c1ccc(O)c(O)c1,inactive,
COc1ccc(-n2cnc3sc4c(c3c2=O)CCCC4)cc1,"inconclusive: 23.1 µM [inhibitor, single point]",
CCCCCCCC1(C)NC(=O)NC1=O (stereo not given),inactive,
Cc1ccc(N2C(=O)N(CC(=O)N(C)Cc3ccccc3)C(=O)C2C)cc1 (stereo not given),"inconclusive: 23.1 µM [inhibitor, single point]",
CCCNC(=O)COC(=O)c1ccc(-c2ccccc2)cc1,inactive,
COc1ccc(-c2csc(-c3cccs3)n2)cc1OC,"inconclusive: 32.6 µM [inhibitor, single point]",
O=C(CN(c1ccccc1)S(=O)(=O)c1ccccc1)Nc1ccc(F)cc1,inactive,
COc1ccccc1N1CCN(C(=O)CCS(=O)(=O)c2cc(Br)cc3c2N(C(C)=O)CC3)CC1,"inconclusive: 25.9 µM [inhibitor, single point]",
CCCNc1nc(C)cc(-c2cc(-c3ccc(Cl)cc3)on2)n1,"inconclusive: 8.2 µM [inhibitor, partial curve]",
COc1ccc(CCNC(=O)/C(C#N)=C/c2ccc(OCC(=O)NCC3CCCO3)cc2)cc1OC (stereo not given),"inconclusive: 29.1 µM [inhibitor, single point]",
CC(C(=O)Nc1ccc(S(=O)(=O)N2CCCC2)cc1)N(C)Cc1ccc(F)cc1 (stereo not given),"inconclusive: 25.9 µM [inhibitor, single point]",
Nc1ccc(C(=O)N2CCN(S(=O)(=O)c3ccc(Cl)cc3)CC2)cc1[N+](=O)[O-],inactive,
Clc1ccc(CON/C=N/c2ncnc3sccc23)c(Cl)c1,active: 10.3 µM,
COc1ccc(CNC(=O)c2cc3c(=O)n(C)c4ccccc4c3n2C)c(OC)c1,"inconclusive: 29.1 µM [inhibitor, single point]",
